The list shows a part of the results. The list includes weakly bound sequences.
molecular target: T1, MBP-FoxP3dN (UniProt Q99JB6); experiment: PD-seq (MBP pull-down with sequencing); conditions: 20 mM Tris-HCl pH 7.5, 100 mM NaCl, 1.5 mM MgCl2, 0.4 uM protein, 0.1 uM dsDNA library, 30 min, room temperature, amylose pull-down; high values mean tight binding; double strand, one strand shown
T1 sequence: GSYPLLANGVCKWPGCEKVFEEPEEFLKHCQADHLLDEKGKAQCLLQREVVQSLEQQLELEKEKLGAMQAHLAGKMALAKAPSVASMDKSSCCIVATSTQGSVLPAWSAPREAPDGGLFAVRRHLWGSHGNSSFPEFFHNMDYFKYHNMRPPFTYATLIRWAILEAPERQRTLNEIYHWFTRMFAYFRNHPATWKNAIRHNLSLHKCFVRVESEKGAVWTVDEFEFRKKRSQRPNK

| Sequence | binding signal (RPM ratio (pull-down/input)) |
| --- | --- |
| GATGATTGTTCTCCCAGCTGATGAATTTTCATGCTCGAGTAAACAAATTTTCCTAATCTTTCTGTTCAAGCGCCATCTAC | 0.372 |
| GATGATTGTTCTCCCAGCTGATGAATTTCAACCGTCGAGTAAACAAATTTTCCTAATCTTTCTGTTCAAGCGCCATCTAC | 0.243 |
| GATGATTGTTCTCCCAGCTGATGAATTTTCCCGATCGAGTAAACAAATTTTCCTAATCTTTCTGTTCAAGCGCCATCTAC | 0.167 |
| GATGATTGTTCTCCCAGCTGATGAATTACCGAGGTCGAGTAAACAAATTTTCCTAATCTTTCTGTTCAAGCGCCATCTAC | 0.257 |
| GATGATTGTTCTCCCAGCTGATGAATTTCGGATGTCGAGTAAACAAATTTTCCTAATCTTTCTGTTCAAGCGCCATCTAC | 0.407 |
| GATGATTGTTCTCCCAGCTGATGAATTTATGACCTCGAGTAAACAAATTTTCCTAATCTTTCTGTTCAAGCGCCATCTAC | 0.888 |
| GATGATTGTTCTCCCAGCTGATGAATTTCAAGAATCGAGTAAACAAATTTTCCTAATCTTTCTGTTCAAGCGCCATCTAC | 0.178 |
| GATGATTGTTCTCCCAGCTGATGAATTGAGCCAATCGAGTAAACAAATTTTCCTAATCTTTCTGTTCAAGCGCCATCTAC | 0.527 |
| GATGATTGTTCTCCCAGCTGATGAATTTGAACTGTCGAGTAAACAAATTTTCCTAATCTTTCTGTTCAAGCGCCATCTAC | 0.368 |
| GATGATTGTTCTCCCAGCTGATGAATTACCGATCTCGAGTAAACAAATTTTCCTAATCTTTCTGTTCAAGCGCCATCTAC | 0.354 |
| GATGATTGTTCTCCCAGCTGATGAATTATAAGTATCGAGTAAACAAATTTTCCTAATCTTTCTGTTCAAGCGCCATCTAC | 0.637 |
| GATGATTGTTCTCCCAGCTGATGAATTCATATTGTCGAGTAAACAAATTTTCCTAATCTTTCTGTTCAAGCGCCATCTAC | 1.06 |
| GATGATTGTTCTCCCAGCTGATGAATTCCGCTTTTCGAGTAAACAAATTTTCCTAATCTTTCTGTTCAAGCGCCATCTAC | 3.18 |
| GATGATTGTTCTCCCAGCTGATGAATTACACGCGTCGAGTAAACAAATTTTCCTAATCTTTCTGTTCAAGCGCCATCTAC | 0.847 |
| GATGATTGTTCTCCCAGCTGATGAATTGCAGCGCTCGAGTAAACAAATTTTCCTAATCTTTCTGTTCAAGCGCCATCTAC | 0.649 |
| GATGATTGTTCTCCCAGCTGATGAATTCTGTCAGTCGAGTAAACAAATTTTCCTAATCTTTCTGTTCAAGCGCCATCTAC | 0.9 |
| GATGATTGTTCTCCCAGCTGATGAATTTTTCCTGTCGAGTAAACAAATTTTCCTAATCTTTCTGTTCAAGCGCCATCTAC | 0.176 |
| GATGATTGTTCTCCCAGCTGATGAATTTATCCGCTCGAGTAAACAAATTTTCCTAATCTTTCTGTTCAAGCGCCATCTAC | 0.431 |
| GATGATTGTTCTCCCAGCTGATGAATTTTGGCTATCGAGTAAACAAATTTTCCTAATCTTTCTGTTCAAGCGCCATCTAC | 0.739 |
| GATGATTGTTCTCCCAGCTGATGAATTAACGTCTTCGAGTAAACAAATTTTCCTAATCTTTCTGTTCAAGCGCCATCTAC | 0.489 |
| GATGATTGTTCTCCCAGCTGATGAATTAACACGTTCGAGTAAACAAATTTTCCTAATCTTTCTGTTCAAGCGCCATCTAC | 0.46 |

| Sequence | binding signal (RPM ratio (pull-down/input)) |
| --- | --- |
| GATGATTGTTCTCCCAGCTGATGAATTAGCGCGCTCGAGTAAACAAATTTTCCTAATCTTTCTGTTCAAGCGCCATCTAC | 0.591 |
| GATGATTGTTCTCCCAGCTGATGAATTGAGAACATCGAGTAAACAAATTTTCCTAATCTTTCTGTTCAAGCGCCATCTAC | 0.365 |
| GATGATTGTTCTCCCAGCTGATGAATTGTGCGACTCGAGTAAACAAATTTTCCTAATCTTTCTGTTCAAGCGCCATCTAC | 3.56 |
| GATGATTGTTCTCCCAGCTGATGAATTTTCTTAATCGAGTAAACAAATTTTCCTAATCTTTCTGTTCAAGCGCCATCTAC | 0.19 |
| GATGATTGTTCTCCCAGCTGATGAATTACTAGGCTCGAGTAAACAAATTTTCCTAATCTTTCTGTTCAAGCGCCATCTAC | 0.319 |
| GATGATTGTTCTCCCAGCTGATGAATTTCTCGTTTCGAGTAAACAAATTTTCCTAATCTTTCTGTTCAAGCGCCATCTAC | 0.318 |
| GATGATTGTTCTCCCAGCTGATGAATTACACCATTCGAGTAAACAAATTTTCCTAATCTTTCTGTTCAAGCGCCATCTAC | 0.724 |
| GATGATTGTTCTCCCAGCTGATGAATTATTTGGGTCGAGTAAACAAATTTTCCTAATCTTTCTGTTCAAGCGCCATCTAC | 0.971 |
| GATGATTGTTCTCCCAGCTGATGAATTGCGATCCTCGAGTAAACAAATTTTCCTAATCTTTCTGTTCAAGCGCCATCTAC | 0.843 |
| GATGATTGTTCTCCCAGCTGATGAATTAAGTAGTTCGAGTAAACAAATTTTCCTAATCTTTCTGTTCAAGCGCCATCTAC | 1.11 |
| GATGATTGTTCTCCCAGCTGATGAATTTTTACCATCGAGTAAACAAATTTTCCTAATCTTTCTGTTCAAGCGCCATCTAC | 0.314 |
| GATGATTGTTCTCCCAGCTGATGAATTGGTAGGTTCGAGTAAACAAATTTTCCTAATCTTTCTGTTCAAGCGCCATCTAC | 0.628 |
| GATGATTGTTCTCCCAGCTGATGAATTGGTCAATTCGAGTAAACAAATTTTCCTAATCTTTCTGTTCAAGCGCCATCTAC | 0.401 |
| GATGATTGTTCTCCCAGCTGATGAATTGTAGGCATCGAGTAAACAAATTTTCCTAATCTTTCTGTTCAAGCGCCATCTAC | 1 |
| GATGATTGTTCTCCCAGCTGATGAATTTACGTAATCGAGTAAACAAATTTTCCTAATCTTTCTGTTCAAGCGCCATCTAC | 1.26 |
| GATGATTGTTCTCCCAGCTGATGAATTGGGCATATCGAGTAAACAAATTTTCCTAATCTTTCTGTTCAAGCGCCATCTAC | 2.06 |
| GATGATTGTTCTCCCAGCTGATGAATTCCCCCGATCGAGTAAACAAATTTTCCTAATCTTTCTGTTCAAGCGCCATCTAC | 0.165 |
| GATGATTGTTCTCCCAGCTGATGAATTTAATCCATCGAGTAAACAAATTTTCCTAATCTTTCTGTTCAAGCGCCATCTAC | 0.269 |
| GATGATTGTTCTCCCAGCTGATGAATTGAAATGTTCGAGTAAACAAATTTTCCTAATCTTTCTGTTCAAGCGCCATCTAC | 0.48 |
| GATGATTGTTCTCCCAGCTGATGAATTTATCTGATCGAGTAAACAAATTTTCCTAATCTTTCTGTTCAAGCGCCATCTAC | 0.374 |
| GATGATTGTTCTCCCAGCTGATGAATTGCATATATCGAGTAAACAAATTTTCCTAATCTTTCTGTTCAAGCGCCATCTAC | 1.46 |

| Sequence | binding signal (RPM ratio (pull-down/input)) |
| --- | --- |
| GATGATTGTTCTCCCAGCTGATGAATTCATTATTTCGAGTAAACAAATTTTCCTAATCTTTCTGTTCAAGCGCCATCTAC | 1.66 |
| GATGATTGTTCTCCCAGCTGATGAATTCGTCCGTTCGAGTAAACAAATTTTCCTAATCTTTCTGTTCAAGCGCCATCTAC | 0.459 |
| GATGATTGTTCTCCCAGCTGATGAATTTGCAAGCTCGAGTAAACAAATTTTCCTAATCTTTCTGTTCAAGCGCCATCTAC | 0.862 |
| GATGATTGTTCTCCCAGCTGATGAATTTAGGCACTCGAGTAAACAAATTTTCCTAATCTTTCTGTTCAAGCGCCATCTAC | 0.691 |
| GATGATTGTTCTCCCAGCTGATGAATTTGTTAAATCGAGTAAACAAATTTTCCTAATCTTTCTGTTCAAGCGCCATCTAC | 0.587 |
| GATGATTGTTCTCCCAGCTGATGAATTGCCGGAGTCGAGTAAACAAATTTTCCTAATCTTTCTGTTCAAGCGCCATCTAC | 0.341 |
| GATGATTGTTCTCCCAGCTGATGAATTCACCACTTCGAGTAAACAAATTTTCCTAATCTTTCTGTTCAAGCGCCATCTAC | 0.354 |
| GATGATTGTTCTCCCAGCTGATGAATTAGCCCAATCGAGTAAACAAATTTTCCTAATCTTTCTGTTCAAGCGCCATCTAC | 0.282 |
| GATGATTGTTCTCCCAGCTGATGAATTACAGGCCTCGAGTAAACAAATTTTCCTAATCTTTCTGTTCAAGCGCCATCTAC | 0.622 |
| GATGATTGTTCTCCCAGCTGATGAATTTACGCGCTCGAGTAAACAAATTTTCCTAATCTTTCTGTTCAAGCGCCATCTAC | 0.58 |
| GATGATTGTTCTCCCAGCTGATGAATTGTGGAGTTCGAGTAAACAAATTTTCCTAATCTTTCTGTTCAAGCGCCATCTAC | 0.624 |
| GATGATTGTTCTCCCAGCTGATGAATTACATTCTTCGAGTAAACAAATTTTCCTAATCTTTCTGTTCAAGCGCCATCTAC | 0.483 |
| GATGATTGTTCTCCCAGCTGATGAATTTAAATGATCGAGTAAACAAATTTTCCTAATCTTTCTGTTCAAGCGCCATCTAC | 0.382 |
| GATGATTGTTCTCCCAGCTGATGAATTAGGTGTGTCGAGTAAACAAATTTTCCTAATCTTTCTGTTCAAGCGCCATCTAC | 1.89 |
| GATGATTGTTCTCCCAGCTGATGAATTGGTTGGCTCGAGTAAACAAATTTTCCTAATCTTTCTGTTCAAGCGCCATCTAC | 1.78 |
| GATGATTGTTCTCCCAGCTGATGAATTGGGCGGTTCGAGTAAACAAATTTTCCTAATCTTTCTGTTCAAGCGCCATCTAC | 0.556 |
| GATGATTGTTCTCCCAGCTGATGAATTTGACAGCTCGAGTAAACAAATTTTCCTAATCTTTCTGTTCAAGCGCCATCTAC | 0.405 |
| GATGATTGTTCTCCCAGCTGATGAATTTATCATCTCGAGTAAACAAATTTTCCTAATCTTTCTGTTCAAGCGCCATCTAC | 3.42 |
| GATGATTGTTCTCCCAGCTGATGAATTCCGATACTCGAGTAAACAAATTTTCCTAATCTTTCTGTTCAAGCGCCATCTAC | 0.876 |
| GATGATTGTTCTCCCAGCTGATGAATTAAGCCTGTCGAGTAAACAAATTTTCCTAATCTTTCTGTTCAAGCGCCATCTAC | 4.24 |
| GATGATTGTTCTCCCAGCTGATGAATTCTTTCCGTCGAGTAAACAAATTTTCCTAATCTTTCTGTTCAAGCGCCATCTAC | 0.202 |

— PMC12820563
